From patent US20260027209A1 (LEGEND BIOTECH IRELAND, published 2026)
Where a chain is given by its changes, count along the chain named. Where two headings read alike, the source gives them in different places. Each block holds one binder with its values, some of them ahead of it.

Columns and labels:
[1] = biological target: T1, human Claudin-6 (human, UniProt P56747 1-220); assay: flow cytometry on OV90 cells (CLDN6-positive tumor cell line)
T1 construct: whole, on cells; also called CLDN6; huCLDN6
T1 sequence (looked up): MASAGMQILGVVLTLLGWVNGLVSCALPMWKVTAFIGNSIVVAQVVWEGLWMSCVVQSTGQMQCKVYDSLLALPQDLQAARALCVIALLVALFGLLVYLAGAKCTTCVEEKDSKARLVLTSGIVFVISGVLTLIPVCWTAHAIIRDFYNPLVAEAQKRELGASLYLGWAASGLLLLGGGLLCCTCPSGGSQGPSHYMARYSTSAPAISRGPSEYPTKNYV
Description: (§1) The anti-CLDN6 antibodies were tested for binding capacities to ES-2. huCLDN3. Luc cell lines, ES-2. huCLDN4. Luc cell lines, ES-2. huCLDN6. Luc cell lines, and ES-2. huCLDN9. Luc cell lines by cell based flow cytometry. Briefly, 5×10⁵ ES-2. huCLDN. Luc cell lines in DPBS (pH7.2) were incubated with serially diluted anti-CLDN6 antibodies at 4° C. for 45 min, followed by wash-centrifugation-supernatant depletion cell washing cycles for 3 times with DPBS. After wash, cell pellets were re-suspended in DPBS and incubated with the anti-human Fc antibody labeled with PE (Biolegend, Cat. No. 409304) at 4° C. for 30 min in dark. The cells were then subject to wash-centrifugation-supernatant depletion cell washing cycles for 3 times with DPBS. The cells were then run on Attune NXT flow cytometry (Thermo Fisher) to detect antibody-binding level. Data were analyzed in GraphPad prism 9 software based on the geometric mean of fluorescence intensity for the cell population in each well. FACS means fluorescence-activated cell sorting.
(§2) OV90 (ATCC #CRL-11732) is a typical CLDN6-positive tumor cell line. They were harvested and re-suspended in 1% PBS-BSA buffer on 96-well plates. The following experimental methods were the same as that in Example 6.3.1.

[2] = biological target: T1, human Claudin-6; assay: flow cytometry on ES-2.huCLDN6.Luc cells, PE anti-human Fc detection
Description: as §1

[3] = biological target: T2, human Claudin-3 (human, UniProt O15551 1-220); assay: flow cytometry on ES-2.huCLDN3.Luc cells; table legend: n.s. indicates no significant binding
T2 construct: whole, on cells; On ES-2.huCLDN3.Luc cells; also called CLDN3; huCLDN3
T2 sequence (looked up): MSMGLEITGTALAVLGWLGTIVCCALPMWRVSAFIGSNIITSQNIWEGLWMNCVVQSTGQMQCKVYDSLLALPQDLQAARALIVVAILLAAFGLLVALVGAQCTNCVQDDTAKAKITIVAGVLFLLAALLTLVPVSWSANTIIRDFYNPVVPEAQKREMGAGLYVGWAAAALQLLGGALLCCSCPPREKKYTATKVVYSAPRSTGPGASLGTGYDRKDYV
Description: as §1

[4] = biological target: T3, human Claudin-4 (human, UniProt O14493 1-209); assay: flow cytometry on ES-2.huCLDN4.Luc cells; table legend: n.s. indicates no significant binding
T3 construct: whole, on cells; On ES-2.huCLDN4.Luc cells; also called CLDN4; huCLDN4
T3 sequence (looked up): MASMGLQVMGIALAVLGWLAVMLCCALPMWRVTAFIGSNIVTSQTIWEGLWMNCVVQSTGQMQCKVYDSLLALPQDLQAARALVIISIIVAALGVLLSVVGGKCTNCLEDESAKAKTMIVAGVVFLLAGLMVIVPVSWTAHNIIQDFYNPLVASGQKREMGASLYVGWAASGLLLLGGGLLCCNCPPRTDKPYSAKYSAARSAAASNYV
Description: as §1

[5] = biological target: T4, human Claudin-9 (human, UniProt O95484 1-217); assay: flow cytometry on ES-2.huCLDN9.Luc cells; table legend: n.s. indicates no significant binding
T4 construct: whole, on cells; On ES-2.huCLDN9.Luc cells; also called CLDN9; huCLDN9
T4 sequence (looked up): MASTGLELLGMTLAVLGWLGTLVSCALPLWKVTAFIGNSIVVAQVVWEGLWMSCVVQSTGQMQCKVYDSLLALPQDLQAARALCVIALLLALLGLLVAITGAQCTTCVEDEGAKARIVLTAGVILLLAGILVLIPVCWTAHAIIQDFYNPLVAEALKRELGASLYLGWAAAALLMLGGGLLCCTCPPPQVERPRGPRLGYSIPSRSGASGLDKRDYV
Description: as §1

[6] = biological target: T1, human Claudin-6; assay: flow cytometry on OV90 cells (CLDN6-positive tumor cell line); remark: listed apart in the source
Description: as §1, §2
Humanized anti-CLDN6 chimeric antibodies were tested for binding capacities to OV90 cells by cell based flow cytometry as method in Example 6.3.2.

[7] = biological target: T1, human Claudin-6; assay: flow cytometry on ES-2.huCLDN6.Luc cells, PE anti-human Fc detection; remark: listed apart in the source
Description: as §1
(§3) Humanized anti-CLDN6 chimeric antibodies were tested for binding capacities to ES-2. huCLDN3. Luc cell lines, ES-2. huCLDN4. Luc cell lines, ES-2. huCLDN6. Luc cell lines, and ES-2. huCLDN9. Luc cell lines by cell based flow cytometry as method in Example 6.3.1.

[8] = biological target: T2, human Claudin-3; assay: flow cytometry on ES-2.huCLDN3.Luc cells; table legend: n.s. indicates no significant binding; remark: listed apart in the source
Description: as §1, §3

[9] = biological target: T3, human Claudin-4; assay: flow cytometry on ES-2.huCLDN4.Luc cells; table legend: n.s. indicates no significant binding; remark: listed apart in the source
Description: as §1, §3

[10] = biological target: T4, human Claudin-9; assay: flow cytometry on ES-2.huCLDN9.Luc cells; table legend: n.s. indicates no significant binding; remark: listed apart in the source
Description: as §1, §3

EC50 [1]: 7.58 nM
EC50 [2]: 5.96 nM
binding result [3]: no binding
binding result [4]: no binding
binding result [5]: no binding
B1: 77LICNB01-hIgG1Fc (Fc fusion)
chain: QVRLVESGGGSVQAGGSLRLSCAASGDRASRALMAWFRQAPGKEREGVAVIWTGNGLTYYANSVKGRFAISQDNAKNTVYLQMNSLKPEDTAMYYCAAAWPFGGDWSVPARYNAWGQGTQVTVSS[human IgG1 Fc omitted here]
notes: expressed in HEK293F cells, Protein A purified; also called VHH-hIgG1Fc chimeric antibody; chimeric antibody

EC50 [1]: 14.8 nM
EC50 [2]: 11 nM
binding result [3]: no binding
binding result [4]: no binding
binding result [5]: no binding
B2: 77LICNB03-hIgG1Fc (Fc fusion)
chain: B1 chain with Q1E, R3Q, A29N, A69T
notes: also called VHH-hIgG1Fc chimeric antibody; chimeric antibody

EC50 [6]: 6.98 nM
EC50 [7]: 7 nM
binding result [8]: no binding
binding result [9]: no binding
binding result [10]: no binding
B3: 77LICNB02H2-hIgG1Fc (Fc fusion)
chain: EVRLVESGGGLVQPGGSLRLSCAASGPTVSMAWFRQAPGKLREGVAQIQAGGGRIYYADPVKGRFTISQDNSKNTLYLQMNSLRAEDTAVYYCAAQLRWDVWPIAWSLYNYWGQGTLVTVSS[human IgG1 Fc omitted here]
notes: also called humanized chimeric antibody; humanized VHH-hIgG1Fc chimeric antibody

EC50 [1]: 3.38 nM
EC50 [2]: 3.77 nM
binding result [3]: no binding
binding result [4]: no binding
binding result [5]: no binding
B4: 77LICNB02-hIgG1Fc (Fc fusion)
chain: B3 chain with E1Q, L11S, P14A, A23V, S72A, K73R, R84K, A85P, V90M, L117Q
notes: as for B2

EC50 [6]: 7.05 nM
EC50 [7]: 7.02 nM
binding result [8]: no binding
binding result [9]: no binding
binding result [10]: no binding
B5: 77LICNB02H1-hIgG1Fc (Fc fusion)
chain: B3 chain with R3Q, Q69R
notes: as for B3
